# Out of some 420,000 compounds screened, about 64,000 (15%) were called active. The inconclusive results got no clear call from the source; some entries with a clear call stand among them for comparison. The call rests on the fitted dose curve; in most records, active means well fitted inhibition curve with a large enough effect; inconclusive means small, poorly fitted or top-dose-only effect; inactive means flat fitted curve, though single readings scatter. Potencies of inconclusive entries are left out as doubtful fits.
# Experiment: qHTS for Inhibitors of human tyrosyl-DNA phosphodiesterase 1 (TDP1): qHTS in cells in absence of CPT; further: nearly all actives have a fitted effect of over 55% in size
# Settings: DT40 Tdp1-/- hTDP1 cells, no CPT, ATP luminescence, 48 h; activity change, negative = growth inhibition: at 46.2 µM (top of the series) unless noted
# Procedure, shortened: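 Seeded 400 DT40-hTDP1 cells/well (vehicle DMSO, no 20 nM CPT); pinned compounds; ≥48 hr at 37 °C; CellTiter-Glo luminescence as viability measure.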
# On the % scale 0 is the no-effect control and ±100 the full control effect; potency means the concentration at half of the fitted maximal effect; tags describe the fitted curve by direction and shape.
Compound,Potency,"activity change, negative = growth inhibition"
COc1ccc(/C=C/C(=O)NCCn2c(C)cc3ccccc32)cc1OC,"inconclusive [inhibitor, single point]",–
COc1cccc(C2CC(=O)Nc3c2c(=O)nc2c(C)cccn32)c1OC (configuration not stated),inactive,–
Cc1ccc(C(c2sc3nc(-c4ccco4)nn3c2O)N2CCN(Cc3ccccc3)CC2)cc1 (configuration not stated),inactive,–
COc1ccccc1CNC(=O)c1cnn2c(C)c(Cc3ccc(F)cc3)c(C)nc12,active: 6.51 µM,–
CC(=O)c1cccc(OCC(=O)NC2CCCCCC2)c1,inactive,–
COc1cccc(C(c2sc3nc(C)nn3c2O)N2CCc3ccccc3C2)c1 (configuration not stated),"inconclusive [inhibitor, partial curve]",–
CC1CCN(S(=O)(=O)c2cccc(C(=O)N(Cc3ccccc3)c3ccccn3)c2)CC1,"inconclusive [inhibitor, single point]",–
CCc1cccc2c(C(=O)C(NCCCOC)c3ccccc3)c[nH]c12 (configuration not stated),"inconclusive [inhibitor, single point]",–
COc1cccc(NC(=O)c2ccc(NC(=O)C(C)C)cc2)c1,"inconclusive [inhibitor, single point]",–
CCCN(CC(=O)Nc1ccccc1OC)C(=O)C1CCCC1,active: 20.6 µM,–
COC(=O)c1cccc(NC(=S)Nc2ccccc2Cl)c1,inactive,–
CC(NC(=O)c1cccs1)C(c1cccs1)N1CCN(Cc2ccccc2)CC1 (configuration not stated),"inconclusive [inhibitor, single point]",–
CCOC(=O)c1ccc(NC(=O)CN2C(=O)COc3ccc(Cl)cc32)cc1,active: 16.4 µM,–
CC[C@]12c3[nH]c4ccc(OC)cc4c3CCN1C(=O)C(CC(=O)NCc1cccc(C(F)(F)F)c1)C[C@@H]2C(=O)N1CCN(C(=O)c2ccco2)CC1 (some centres not stated),"inconclusive [inhibitor, single point]",–
COc1cc(CN2CCC(C)CC2)ccc1OCc1ccccc1,"inconclusive [inhibitor, partial curve]",–
O=S(=O)(Nc1ccc(S(=O)(=O)Nc2ccccc2)cc1)c1ccccc1,inactive,–
O=C(CCOc1ccccc1)Nc1ccnn1C1CCN(CCc2ccccc2)CC1,inactive,–
Cc1ccc(-c2noc(CCC(=O)N3CCCC3)n2)cc1,"inconclusive [inhibitor, partial curve, poor fit]",–
CCOc1ccc(S(=O)(=O)N2CCN(CC)CC2)cc1NC(=O)c1ccccc1F,"inconclusive [inhibitor, single point]",–
Brc1ccc2nc(-c3ccco3)c(Cc3ccsc3)n2c1,"inconclusive [inhibitor, single point]",–
COc1ccc(N(Cc2cc3ccccc3[nH]c2=O)S(C)(=O)=O)cc1,"inconclusive [inhibitor, single point]",–
CC1=C(C(=O)OC2CCCC2)C(c2ccccc2Cl)CC(=O)N1 (configuration not stated),active: 13 µM,–
Cc1cnccc1/C=C/c1ccc(N)cc1,"inconclusive [inhibitor, single point]",–
COc1ccc2oc(=O)cc(C)c2c1,"inconclusive [inhibitor, single point]",–

Compound,Potency,"activity change, negative = growth inhibition"
COc1ccc(C2C(C#N)=C(N)Oc3cc(O)ccc32)cc1C (configuration not stated),"inconclusive [inhibitor, single point]",–
Cc1cc(C(=O)O)ccc1[N+](=O)[O-],"inconclusive [inhibitor, single point]",–
CCn1c(SCC(=O)NC2CCCc3ccccc32)nnc1-c1cccs1 (configuration not stated),"inconclusive [inhibitor, single point]",–
COc1cc(N2C(=O)NC3CC2(C)Oc2ccccc23)cc(OC)c1OC (configuration not stated),inactive,–
CC(C)(C)OC(=O)N1CCC(c2c(C(=O)NC3CCCCC3)cnn2-c2cccc(Cl)c2)CC1,"inconclusive [inhibitor, single point]",–
COc1ccc(N2C(c3ccsc3)=Cc3cc4c(cc3C2c2c[nH]c3ccccc23)OCO4)cc1 (configuration not stated),active: 23.1 µM,–
Cc1ccc(S(=O)(=O)N2CCCCC2)cc1C(=O)OCC(=O)N1c2ccccc2NC(=O)C1(C)C,"inconclusive [inhibitor, partial curve]",–
CC1(C#CC[N+]2(C)CCCCC2)CCC2C(O1)c1ccccc1OC2(C)C (configuration not stated),"inconclusive [inhibitor, single point]",–
COc1cccc(NC(=O)c2cccnn2)c1,inactive,–
Cn1nccc1C(=O)NCc1ccc2c(c1)CCN2C(=O)c1ccccc1,inactive,–
O=C(NCc1nnc(SCC(=O)N2CCCc3ccccc32)o1)c1ccccc1F,inactive,–
O=c1c2c(-c3ccc([N+](=O)[O-])cc3)csc2nc2n1CCCCC2,–,inconclusive: -33.2% [inhibitor]
O=C(Nc1ccc(S(=O)(=O)NCC2CCCO2)cc1)c1ccc(F)cc1 (configuration not stated),active: 16.4 µM,–
CC(C(=O)NCc1ccccc1Cl)N1C(=O)c2ccccc2C1=O (configuration not stated),inactive,–
Cc1ccc(C2=CC(c3ccc(N(C)C)cc3)n3nnnc3N2)cc1 (configuration not stated),active: 20.6 µM,–
Cc1ccc2nc(-c3ccncc3)cc(C(=O)Nc3ccc4c(c3)OCCO4)c2c1,active: 10.3 µM,–
Cc1c(C(=O)N2CCC(C)CC2)c(S(=O)(=O)N2CCN(c3ccc(Cl)cc3)CC2)c(C)n1C,"inconclusive [inhibitor, single point]",–
COc1cnc(-c2ccccc2)nc1Oc1cccc(C)c1C,"inconclusive [inhibitor, single point]",–
CCC(C)NC(=O)C1CCN(S(=O)(=O)c2cccnc2)CC1 (configuration not stated),inactive,–
CC1C(=O)N2CCCc3cc(NS(=O)(=O)c4ccc(F)cc4)cc1c32 (configuration not stated),inactive,–
CN(Cc1ccccc1)Cc1nc2c(c(=O)n(C)c(=O)n2C)n1Cc1ccc(F)cc1,"inconclusive [inhibitor, single point]",–
COc1ccccc1CCC(=O)N1CCOc2c(cc(-c3cnc4ccccc4c3)cc2OC)C1,inactive,–
COc1ccc(N(CC(=O)NCCSCc2ccccc2Cl)S(C)(=O)=O)cc1Cl,"inconclusive [inhibitor, partial curve, poor fit]",–
c1ccc(-c2nnc(OCC3CCCO3)c3ccccc23)cc1 (configuration not stated),–,inconclusive: -32.9% [inhibitor]

Compound,Potency,"activity change, negative = growth inhibition"
CC(NC(=O)c1cc2c(s1)CS(=O)(=O)C2)c1ccccc1 (configuration not stated),inactive,–
Cc1nn(-c2cccc([N+](=O)[O-])c2)c(N)c1-c1ccccc1,"inconclusive [inhibitor, single point]",–
CCN(CC(=O)Nc1ccc(NC(C)=O)cc1)C(=O)c1ccccc1CCc1ccccc1,"inconclusive [inhibitor, single point]",–
CC1CCCN(CCCNC(=O)CN2C(=O)CSc3ccc(S(=O)(=O)N4CCOCC4)cc32)C1 (configuration not stated),inactive,–
COc1cccc(CNC(=O)CCCN2C(=O)C(c3ccccc3)Oc3cccnc32)c1OC (configuration not stated),"inconclusive [inhibitor, single point]",–
COCCCNC(NC(=O)c1ccc(Cl)cc1)C(Cl)(Cl)Cl (configuration not stated),active: 16.4 µM,–
COc1cccc(CNc2nc3cc(-c4cccc(Cl)c4)sc3c(=O)n2C)c1OC,"inconclusive [inhibitor, single point]",–
Cc1cccc(N2CCN(C(C(=O)NCc3ccccc3)c3ccc(C(F)(F)F)cc3)CC2)c1C (configuration not stated),"inconclusive [inhibitor, partial curve]",–
COC(=O)N1C(=O)[C@@](c2ccccc2)(C2CCCC2)N1C(=O)OC,active: 16.4 µM,–
O=C(Cn1ncc2c3ccccc3n(Cc3ccccc3F)c2c1=O)NCCCN1CCCC1=O,inactive,–
COc1cc2c(cc1OC)CN(C(=O)c1sccc1C)CC2,inactive,–
O=C(Nc1cc(C(F)(F)F)ccc1Cl)c1ccc(NC(=O)C(F)(F)F)cc1,"inconclusive [inhibitor, partial curve, poor fit]",–
Cn1c(=O)c2c(nc(NCCNC(=O)c3ccco3)n2Cc2ccccc2Cl)n(C)c1=O,–,inconclusive: -30.7% [inhibitor]
O=S(=O)(Nc1cc(S(=O)(=O)N2CCOCC2)ccc1NCC1CCCO1)c1ccc(F)cc1 (configuration not stated),"inconclusive [inhibitor, partial curve]",–
c1cc(-c2ccsc2)n2cnnc2c1,inactive,–
O=C(Nc1cccc(F)c1)NC1CCCCCCC1,"inconclusive [inhibitor, single point]",–
Cc1cnc(CNc2nc(-c3ccccc3Cl)nc3ccccc23)cn1,inactive,–
O=C(Nc1nc2c(s1)CCCC2)c1ccc(Br)s1,active: 29.1 µM,–
CC(=O)c1ccc(S(=O)(=O)N(C)CCCC(=O)N2CCN(c3ncccn3)CC2)cc1,"inconclusive [inhibitor, single point]",–
C[C@H]1COC(=O)[C@@H](CC(=O)OC(C)(C)C)C/C=C\C[C@@H](CC(=O)N(CCO)Cc2ccccc2)C(=O)N1,"inconclusive [inhibitor, single point]",–
N#Cc1nc(-c2ccccc2)oc1NCc1ccco1,–,inconclusive: -32.1% [inhibitor]
C[C@@H]1CCCCO[C@@H](CN(C)C(=O)Nc2ccc3c(c2)OCO3)[C@@H](C)CN([C@H](C)CO)C(=O)c2cc(N(C)C)ccc2O1,"inconclusive [inhibitor, full curve, poor fit]",–
OC(c1ccc(F)cc1)c1nc(-c2cccc(C(F)(F)F)c2)cs1 (configuration not stated),"inconclusive [inhibitor, single point]",–
COc1ccc(NC(=S)N2CCC(NC(=O)c3cccc(F)c3)CC2)cc1,inactive,–
